Here are results for 56 variants from the RNAGym collection of RNA variant scans (doi:10.7554/elife.90254).

B1: LINE1-mini (parent)
chain: GGCAGAGCUCAACACAGCGUGGCAAAGUGGCUGUGGCUAGACUGCC

The source gives no read counts; variants with many changes may rest on few reads.

Variants of B1 are the subject of the data set. Description: self-cleavage, relative activity (ratio to wild type); higher = more cleavage; in vitro, sequencing; the parent is a self-cleaving ribozyme.
As to GGCAGAGCUCAACACAGCGUGGCAAAGUUGGUGUGGCUAAACUGCC [G29U C31G G40A], the self-cleavage came out at 0.02.

Take GGCAGAGCUCAACACAGCGUGGCAAAGUUGCUGUGACUGGACUGCC [G29U G36A A39G]: the self-cleavage is 0.11.

For GGCAGAGCUCAACACAGCGUGGCAAAGUUGCUGUGGCUAGACUGUA [G29U C45U C46A], the self-cleavage turned out to be 0.62.

Take GGCAGAGCUCAACACAGCGUGGCAAAGUUGCUGUGGCUCGGCUGCC [G29U A39C A41G]: the self-cleavage was found to be 0.13.

On to GGCAGAGCUCAACACAGCGUGGCAAAGUUGCGCUGGCAAGACUGCC [G29U U32G G33C U38A], for which the self-cleavage is 0.3.

With GGCAGAGCUCAACACAGCGUGGCAAAGUUGCUGUGGCCAGAUUGCC [G29U U38C C42U], the self-cleavage is 0.83.

For the variant GGCAGAGCUCAACACAGCGUGGCAAAGUUGCUGUCGCUAGAGUGCC [G29U G35C C42G], the self-cleavage amounted to 0.01.

Consider GGCAGAGCUCAACACAGCGUGGCAAAGUGACUCUGGCUAGACUGAC [G30A G33C C45A], for which the self-cleavage came to 0.02.

Regarding GGCAGAGCUCAACACAGCGUGGCAAAGUUGCUGUGGUUAGACUUCC [G29U C37U G44U], the self-cleavage was determined as 0.

In the case of GGCAGAGCUCAACACAGCGUGGCAAAGUCGCUGUAGAAAGACUGCC [G29C G35A C37A U38A], the self-cleavage was 0.01.

On to GGCAGAGCUCAACACAGCGUGGCAAAGUUGCUGUGGCUGGACUACC [G29U A39G G44A], for which the self-cleavage was found to be 0.03.

On to GGCAGAGCUCAACACAGCGUGGCAAAGUUUCUGUGGCUAGACUGCA [G29U G30U C46A], for which the self-cleavage turned out to be 0.98.

For the variant GGCAGAGCUCAACACAGCGUGGCAAAGUCUCUGUGGGUAGAGUGCC [G29C G30U C37G C42G], the self-cleavage is 0.17.

GGCAGAGCUCAACACAGCGUGGCAAAGUGACUGUGGCUCGACUCCC [G30A A39C G44C]: the self-cleavage amounted to 0.21.

As to GGCAGAGCUCAACACAGCGUGGCAAAGUGACUAUGGCCAGACUGCC [G30A G33A U38C], the self-cleavage stood at 0.07.

For the variant GGCAGAGCUCAACACAGCGUGGCAAAGUUACUGUAGCGAGACUGCC [G29U G30A G35A U38G], the self-cleavage came out at 0.

Regarding GGCAGAGCUCAACACAGCGUGGCAAAGUUACUGUGGCUAGACUGGC [G29U G30A C45G], the self-cleavage stood at 0.39.

As for GGCAGAGCUCAACACAGCGUGGCAAAGUGACUGUGGCUAAACACCC [G30A G40A U43A G44C], the self-cleavage turned out to be 0.1.

Take GGCAGAGCUCAACACAGCGUGGCAAAGUGACUGUGGUUAGAAUGCC [G30A C37U C42A]: the self-cleavage was 0.11.

As for GGCAGAGCUCAACACAGCGUGGCAAAGUCGCUGUGGCGAGUCUGCC [G29C U38G A41U], the self-cleavage turned out to be 0.

In the case of GGCAGAGCUCAACACAGCGUGGCAAAGUUGAUGUGGCUAGACUGCG [G29U C31A C46G], the self-cleavage stood at 0.14.

Consider GGCAGAGCUCAACACAGCGUGGCAAAGUGACUGUGACUAGACUGGC [G30A G36A C45G], for which the self-cleavage was 0.59.

Turning to GGCAGAGCUCAACACAGCGUGGCAAAGUUGCUUUGCCUAGAGAGCC [G29U G33U G36C C42G U43A], the self-cleavage is 0.02.

As to GGCAGAGCUCAACACAGCGUGGCAAAGUUUAUGUGGCUAGACUGCC [G29U G30U C31A], the self-cleavage worked out at 0.26.

As to GGCAGAGCUCAACACAGCGUGGCAAAGUGACUGUGGCUAGGAUGUA [G30A A41G C42A C45U C46A], the self-cleavage was determined as 0.05.

GGCAGAGCUCAACACAGCGUGGCAAAGUUGCUGAGGCUAGAGGGCC [G29U U34A C42G U43G]: the self-cleavage was determined as 0.03.

For the variant GGCAGAGCUCAACACAGCGUGGCAAAGUGACUGUGUCUGGACUGCC [G30A G36U A39G], the self-cleavage stood at 0.03.

Take GGCAGAGCUCAACACAGCGUGGCAAAGUUAGUGUGGCUAGACUGCC [G29U G30A C31G]: the self-cleavage is 0.07.

Take GGCAGAGCUCAACACAGCGUGGCAAAGUGACUGUGGCUUGACAACC [G30A A39U U43A G44A]: the self-cleavage came out at 0.09.

Turning to GGCAGAGCUCAACACAGCGUGGCAAAGUUGAUGUGCCUAGACUUCC [G29U C31A G36C G44U], the self-cleavage stood at 0.02.

For the variant GGCAGAGCUCAACACAGCGUGGCAAAGUCGCGGUGGGUAGACUGCC [G29C U32G C37G], the self-cleavage is 0.02.

As for GGCAGAGCUCAACACAGCGUGGCAAAGUUGCUGUGGCUCGACUCCC [G29U A39C G44C], the self-cleavage was determined as 0.13.

GGCAGAGCUCAACACAGCGUGGCAAAGUCGCUGUGACUAGCCUGCC [G29C G36A A41C]: the self-cleavage stood at 0.02.

For the variant GGCAGAGCUCAACACAGCGUGGCAAAGUAGCUGUGGCGGGACUGCC [G29A U38G A39G], the self-cleavage is 0.02.

On to GGCAGAGCUCAACACAGCGUGGCAAAGUUGCUUUGGAUAGACUGCA [G29U G33U C37A C46A], for which the self-cleavage was determined as 0.05.

For the variant GGCAGAGCUCAACACAGCGUGGCAAAGUUGCUGUGGCUAAACUACC [G29U G40A G44A], the self-cleavage is 0.11.

For the variant GGCAGAGCUCAACACAGCGUGGCAAAGUUCCUGUGGCAAGACUGCC [G29U G30C U38A], the self-cleavage was 0.07.

With GGCAGAGCUCAACACAGCGUGGCAAAGUUCCUGUGGCCAGACUGCC [G29U G30C U38C], the self-cleavage was 0.04.

With GGCAGAGCUCAACACAGCGUGGCAAAGUGACUGUGACUAGACAGCC [G30A G36A U43A], the self-cleavage stood at 1.63.

In the case of GGCAGAGCUCAACACAGCGUGGCAAAGUUGUUGUGGCUACACUGCC [G29U C31U G40C], the self-cleavage came to 0.03.

For the variant GGCAGAGCUCAACACAGCGUGGCAAAGUCGCUGUCGCUACACUGCC [G29C G35C G40C], the self-cleavage was found to be 0.02.

Take GGCAGAGCUCAACACAGCGUGGCAAAGUUGCUAUGGCUACACCGCC [G29U G33A G40C U43C]: the self-cleavage was determined as 0.04.

For GGCAGAGCUCAACACAGCGUGGCAAAGUGACUGUGACUAGCCUGCC [G30A G36A A41C], the self-cleavage amounted to 0.09.

As to GGCAGAGCUCAACACAGCGUGGCAAAGUGACUGUGGAUUGACUGCC [G30A C37A A39U], the self-cleavage is 0.25.

In the case of GGCAGAGCUCAACACAGCGUGGCAAAGUUGCAGUGGCUUGACUGCC [G29U U32A A39U], the self-cleavage is 0.08.

With GGCAGAGCUCAACACAGCGUGGCAAAGUCAAGGUGGCUAGACUGCC [G29C G30A C31A U32G], the self-cleavage was determined as 0.09.

With GGCAGAGCUCAACACAGCGUGGCAAAGUUGCUGUGGCUAGACAGCU [G29U U43A C46U], the self-cleavage was found to be 0.

As for GGCAGAGCUCAACACAGCGUGGCAAAGUGACUGUGGCUAGCCUCCC [G30A A41C G44C], the self-cleavage worked out at 0.05.

In the case of GGCAGAGCUCAACACAGCGUGGCAAAGUUGCAGUGGCUAAACUGCC [G29U U32A G40A], the self-cleavage turned out to be 0.31.

With GGCAGAGCUCAACACAGCGUGGCAAAGUUGCUGUGGUCAGACUGCC [G29U C37U U38C], the self-cleavage was found to be 0.04.

In the case of GGCAGAGCUCAACACAGCGUGGCAAAGUCGCAGAGGCUAGCCUGCC [G29C U32A U34A A41C], the self-cleavage was determined as 0.09.

With GGCAGAGCUCAACACAGCGUGGCAAAGUUGCUGUUGCUAUACUGCC [G29U G35U G40U], the self-cleavage was determined as 0.08.

Turning to GGCAGAGCUCAACACAGCGUGGCAAAGUGACUGUGGCUAGUCUGGC [G30A A41U C45G], the self-cleavage turned out to be 0.12.

Regarding GGCAGAGCUCAACACAGCGUGGCAAAGUCGCUGUGGCUAAACUGCU [G29C G40A C46U], the self-cleavage turned out to be 0.18.

GGCAGAGCUCAACACAGCGUGGCAAAGUGACUGUGGUUAGACUGCU [G30A C37U C46U]: the self-cleavage was found to be 0.02.

Consider GGCAGAGCUCAACACAGCGUGGCAAAGUUGCUGUGGCUAAAUUGCC [G29U G40A C42U], for which the self-cleavage amounted to 0.17.
